{
  "source": "the supplement of paper PMC9446081",
  "note": "In all, about 39,000 compounds went through this assay and about 220 (0.56%) showed activity. This is one part of the list.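 Note: static incubation at 37 °C against the wild-type strain, values averaged over two biological replicates.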",
  "data": [
    {"tested_on": "Escherichia coli K-12 BW25113", "assay": "relative growth (OD600 normalised to plate interquartile mean) (fraction); higher = less growth inhibition, active = 0.2 or less", "details": "50 µM; LB; incubation time: overnight (16-24 h)", "values": [
      {"smiles": "N#CCSc1ncnc2c1cnn2CCO", "relative growth": "inactive: 1"},
      {"smiles": "C[C@H]1CCCCO[C@@H](CN(C)C)[C@@H](C)CN([C@@H](C)CO)C(=O)c2cc(NS(=O)(=O)c3cn(C)cn3)ccc2O1", "relative growth": "inactive: 1"},
      {"smiles": "CNC[C@H]1OCCCC[C@@H](C)Oc2ccc(NS(=O)(=O)c3cn(C)cn3)cc2C(=O)N([C@H](C)CO)C[C@H]1C", "relative growth": "inactive: 1.02"},
      {"smiles": "CC(C)NC(=O)N(C)C[C@H]1Oc2ccc(NC(=O)NC3CCCCC3)cc2C(=O)N([C@@H](C)CO)C[C@@H]1C", "relative growth": "inactive: 0.967"},
      {"smiles": "CC(C)NC(=O)Nc1ccc2c(c1)CC(=O)N([C@@H](C)CO)C[C@@H](C)[C@H](CN(C)Cc1ccc(C(=O)O)cc1)O2", "relative growth": "inactive: 0.997"},
      {"smiles": "CCCN(C)C[C@@H]1OCCCC[C@H](C)Oc2ccc(NC(=O)Nc3ccc(C(F)(F)F)cc3)cc2C(=O)N([C@H](C)CO)C[C@@H]1C", "relative growth": "inactive: 0.97"},
      {"smiles": "O=C(C[C@H]1CC[C@H]2[C@@H](COC[C@@H](O)CN2CC2CCOCC2)O1)N1CCOCC1", "relative growth": "inactive: 0.941"},
      {"smiles": "CCC(=O)N[C@H]1C=C[C@@H](CC(=O)OC)O[C@@H]1CO", "relative growth": "inactive: 0.989"},
      {"smiles": "O=C(O)CCC(=O)N[C@H]1CCCCNC1=O", "relative growth": "inactive: 1"},
      {"smiles": "C[C@@H]1CN([C@@H](C)CO)C(=O)c2cc(-c3cccc(C#N)c3)cnc2O[C@H]1CN(C)C(=O)C1CCOCC1", "relative growth": "inactive: 1.01"},
      {"smiles": "CN(C)CC(=O)N[C@H]1CC[C@H](CCn2cc(CN(C)C)nn2)O[C@@H]1CO", "relative growth": "inactive: 0.984"},
      {"smiles": "C[C@@H]1CN([C@@H](C)CO)C(=O)Cc2cc(NC(=O)Cc3cn(C)c4ccccc34)ccc2O[C@@H]1CN(C)C", "relative growth": "inactive: 1.01"},
      {"smiles": "C[C@H]1CN([C@@H](C)CO)C(=O)c2cc(NS(C)(=O)=O)ccc2O[C@H]1CN(C)Cc1ccc(C(F)(F)F)cc1", "relative growth": "inactive: 0.986"},
      {"smiles": "C[C@H]1CN([C@@H](C)CO)S(=O)(=O)c2ccc(-c3ccc(C#N)cc3)cc2O[C@H]1CN(C)C(=O)CN(C)C", "relative growth": "inactive: 0.969"},
      {"smiles": "C[C@H](CO)N1C[C@H](C)[C@@H](CN(C)C(=O)Nc2ccc3c(c2)OCO3)OCCCC[C@H](C)Oc2ccc(NC(=O)Nc3ccc(C(F)(F)F)cc3)cc2C1=O", "relative growth": "inactive: 0.995"},
      {"smiles": "O=C(C[C@H]1CC[C@@H]2[C@H](COC[C@H](O)CN2C(=O)Nc2ccc(Cl)cc2)O1)NCCc1ccncc1", "relative growth": "inactive: 1"},
      {"smiles": "COc1cc(O)c(C(=O)c2ccccc2)cc1S(=O)(=O)O", "relative growth": "inactive: 1.06"},
      {"smiles": "Cc1ccc(S(=O)(=O)Nc2ccc3c(c2)C(=O)N([C@@H](C)CO)C[C@@H](C)[C@@H](CN(C)Cc2ccc4c(c2)OCO4)OCCCC[C@H](C)O3)cc1", "relative growth": "inactive: 0.986"},
      {"smiles": "COc1ncnc2nc[nH]c12", "relative growth": "inactive: 0.932"},
      {"smiles": "CO/N=C(\\C(=O)N[C@@H]1C(=O)N2C(C(=O)O)=C(C[N+]3(C)CCCC3)CS[C@H]12)c1csc(N)n1", "relative growth": "active: 0.0339"},
      {"smiles": "CO[C@H]1CN(C)C(=O)c2ccc(NS(C)(=O)=O)cc2OC[C@@H](C)N(C(=O)c2ccc3c(c2)OCO3)C[C@@H]1C", "relative growth": "inactive: 1"},
      {"smiles": "CS(=O)(=O)N1CCN2C[C@H](C(=O)O)CN(Cc3ccoc3)C[C@@H]2C1", "relative growth": "inactive: 1.02"},
      {"smiles": "C[C@@H]1CCCCO[C@H](CN(C)S(=O)(=O)c2ccccc2)[C@@H](C)CN([C@@H](C)CO)C(=O)c2cc(NC(=O)NC3CCCCC3)ccc2O1", "relative growth": "inactive: 1"},
      {"smiles": "C[C@@H]1CCCCO[C@H](CN(C)C(=O)Nc2ccc(F)cc2)[C@H](C)CN([C@@H](C)CO)C(=O)c2cc(NS(=O)(=O)c3ccc(F)cc3)ccc2O1", "relative growth": "inactive: 1.01"},
      {"smiles": "COc1ccc(NC(=O)Nc2ccc3c(c2)CC(=O)N([C@@H](C)CO)C[C@@H](C)[C@@H](CN(C)Cc2ccc(C(=O)Nc4ccccc4N)cc2)O3)cc1", "relative growth": "inactive: 0.986"},
      {"smiles": "C[C@H](CO)N1C[C@H](C)[C@H](CN(C)C(=O)NC2CCCCC2)Oc2ccc(NC(=O)CCN3CCOCC3)cc2CC1=O", "relative growth": "inactive: 0.983"},
      {"smiles": "COc1cc(CO)cc(I)c1O[C@H]1C=C(C(=O)NCCO)C[C@@H](NC2CCCCCC2)[C@@H]1O", "relative growth": "inactive: 0.908"},
      {"smiles": "C[C@H]1CC/C=C\\[C@H]2O[C@@]34C=CCN(Cn5nnc6ccccc65)C(=O)[C@H]3N(CCCO)C(=O)[C@@H]4[C@@H]2C(=O)O1", "relative growth": "inactive: 0.979"},
      {"smiles": "C[C@@H]1CN([C@H](C)CO)C(=O)Cc2cc(NC(=O)CCCN(C)C)ccc2O[C@@H]1CN(C)Cc1ccc(Oc2ccccc2)cc1", "relative growth": "inactive: 1.03"},
      {"smiles": "COc1ccc2c3c(n(c2c1)C)[C@@H](CO)N(Cc1cc(cc(c1)OC)OC)C[C@]13CN(C1)C(=O)CN1CCOCC1", "relative growth": "inactive: 1"},
      {"smiles": "C[C@H]1CN([C@@H](C)CO)C(=O)c2cc(NS(C)(=O)=O)ccc2O[C@@H]1CN(C)S(=O)(=O)c1cccs1", "relative growth": "inactive: 1.01"},
      {"smiles": "O=C(O)CCc1nnc2ccc(Cl)nn12", "relative growth": "inactive: 0.923"},
      {"smiles": "Cn1cnc(CCNC(=O)C[C@@H]2CC[C@H]3[C@@H](COC[C@@H](O)CN3C(=O)C3CC3)O2)c1", "relative growth": "inactive: 1.01"},
      {"smiles": "COc1ccc(CN(C)C[C@H]2Oc3ccc(NC(=O)CCN4CCOCC4)cc3CC(=O)N([C@@H](C)CO)C[C@@H]2C)cc1", "relative growth": "inactive: 1.01"},
      {"smiles": "CCCNC(=O)Nc1ccc2c(c1)C(=O)N(C)C[C@H](OC)[C@H](C)CN(C(=O)C1CCOCC1)[C@H](C)CO2", "relative growth": "inactive: 0.957"},
      {"smiles": "COc1ccc(S(=O)(=O)N(C)C[C@H]2OCCCC[C@H](C)Oc3ccc(NC(=O)Nc4cccc5ccccc45)cc3C(=O)N([C@H](C)CO)C[C@@H]2C)cc1", "relative growth": "inactive: 1.02"},
      {"smiles": "C[C@H](CO)N1C[C@H](C)[C@H](CN(C)C(=O)Nc2ccc(C(F)(F)F)cc2)Oc2ncc(-c3ccc(C#N)cc3)cc2C1=O", "relative growth": "inactive: 1.01"},
      {"smiles": "C[C@@H]1CN([C@@H](C)CO)C(=O)Cc2cc(NC(=O)Cc3cn(C)c4ccccc34)ccc2O[C@H]1CN(C)CC1CCCCC1", "relative growth": "inactive: 0.994"},
      {"smiles": "COc1ccc(NC(=O)N(C)C[C@@H]2Oc3ccc(NC(=O)Nc4cccc5ccccc45)cc3C(=O)N([C@H](C)CO)C[C@@H]2C)cc1", "relative growth": "inactive: 0.982"},
      {"smiles": "C[C@@H]1CN([C@@H](C)CO)S(=O)(=O)c2ccc(-c3ccccc3F)cc2O[C@@H]1CN(C)S(C)(=O)=O", "relative growth": "inactive: 1.01"}
    ]}
  ]
}
